The values that follow come from PubChem BioAssay AID463173 (ICCB-Longwood Screening Facility, Harvard Medical School, 2010).

Among all 52,000 compounds or so, about 1,700 (3.3%) were called active. Rule as the data show it: active = survival mostly below about 52% (no sharp cut-off); inactive = mostly above about 56%. The list shows a part of the results.

The test deals with Wild type. As to the kind of experiment: S. aureus survival, RN4220 and DeltatarO strains – OD600, teichoic acid synthesis inhibitors, primary screen (AID 463173). To be noted: S. aureus RN4220 wild type/DeltatarO growth, OD600, 18 h, stronger effect = lower value, screened at 18.75 µg/mL (by protocol).
Take `COc1cccc(CNC(=O)Cn2ncn3nc(-c4cccs4)cc3c2=O)c1`: the survival was inactive: 89%.

Consider `CCOC(=O)Cc1csc(NC(=O)CSc2nc3c(C)c(C)ccc3cc2C#N)n1`, for which the survival was inactive: 103%. Next, `COc1ccc(Cn2ccc3nc(C)c(C(=O)Nc4cccc(SC)c4)cc3c2=O)cc1`: inactive: 69%; `Oc1c(C(Nc2ccccn2)c2ccccc2F)ccc2cccnc12` (stereo unspecified): inactive: 135%.

On to `Cc1ccc(NC(=O)C2CCN(S(=O)(=O)c3cccc4nsnc34)CC2)cc1F`, for which the survival was inactive: 91%. With `CCCNC(=O)c1ccc2c(c1)nc1n2CCCCC1` the figure was inactive: 78%; with `Cc1noc(C)c1S(=O)(=O)N(CC(=O)Nc1ccc(F)cc1F)c1ccc(C(C)C)cc1`, inactive: 79%. With `CC1Cc2ccccc2N1C(=O)c1cnsn1` (stereo unspecified) the figure was inactive: 94%. With `CC1CN(C(=O)N(C)C)CCN1C(=O)N(C)C` (stereo unspecified) the figure was inactive: 98%; with `COc1ccc(NC(=O)C(=O)NCCc2csc3nc(-c4ccccc4F)nn23)cc1OC`, inactive: 63%. As to `O=C(NC12CCC(O)C(SC1)/C2=N/O)c1ccccc1` (stereo unspecified), the survival is inactive: 108%. As to `O=C1C2C3C=CC(C3)C2C(=O)N1CCN1C(=O)C2C3C=CC(C3)C2C1=O` (stereo unspecified), the survival was inactive: 113%. With `CC(=O)c1ccc(NS(=O)(=O)c2ccc3c(c2)NC(=O)CCS3)cc1`, the survival is inactive: 82%.

Take `CCn1cc2nc(SCc3ccccc3Cl)n(Cc3ccc(OC)cc3)c(=O)c2n1`: the survival was inactive: 85%.

For the molecule `COc1cccc(CNC(=O)c2ccc(-c3nc(CSc4ccccc4)c(C)o3)cc2)c1`, the survival was inactive: 51%. With `COc1ccc(C(Nc2ccccn2)c2ccc3ccc(C)nc3c2O)cc1C` (stereo unspecified) the figure was inactive: 62%; with `CC(=O)Nc1ccccc1-c1nc2ccccc2n(C(C)C(=O)Nc2ccccc2C(F)(F)F)c1=O` (stereo unspecified), inactive: 102%; with `COc1ccc(-c2c(C)c3ccc(O)c(CN4CCC(C)CC4)c3oc2=O)cc1OC`, inactive: 73%. With `CC(=O)Nc1ccc(S(=O)(=O)n2cnc3cc(C)c(C)cc32)cc1` the figure was inactive: 112%. Next, `CCCN(CCC)CCCNC(=O)c1cc2c(=O)n(C)c3ccccc3c2s1`: inactive: 130%. On to `Cc1cccc(N2CCN(C3=C(c4ccccc4)C(=O)c4ccccc43)CC2)c1C`, for which the survival was inactive: 71%. As to `COc1cc(OC)c(OC)cc1/C=C/c1nc2cc3ccccc3cc2c(=O)n1-c1ccccc1Br`, the survival was inactive: 68%. Next, `Cc1ccc(CNC(=O)c2cc(=O)c3cc(C)ccc3o2)cc1`: inactive: 85%; `CN1CCN(c2ncnc3c2cnn3-c2cccc(Cl)c2)CC1`: inactive: 78%; `COc1cc2c(c(OC)c1)C(c1cccc(F)c1F)CC(=O)N2` (stereo unspecified): inactive: 82%. With `CC(=O)N/C(N)=N\c1nc(C)c2ccc(C)cc2n1` the figure was inactive: 110%; with `CCOC(=O)c1c(NC(=O)c2cc(=O)c3cc(C)ccc3o2)sc2c1CCCC2`, inactive: 88%; with `COc1ccc(Cl)cc1NC(=O)CSC1=Nc2ccccc2C2=NC(CCC(=O)NCc3ccco3)C(=O)N12` (stereo unspecified), inactive: 83%. With `Cc1ccc(Cn2c(CCNC(=O)c3cccc(C)c3)nc3ccccc32)cc1` the figure was inactive: 68%; with `Cc1ccc(S(=O)(=O)N2CCN(Cc3ccccc3Cl)CC2)cc1`, active: 19%. As to `Cc1cccc(NC(=O)CN2C(=O)C3(SCC(=O)N3c3ccccc3)c3ccccc32)c1` (stereo unspecified), the survival was inactive: 124%. With `Cc1ccc(Cn2c(C(=O)O)c(CNCc3ccc(C)o3)c3ccc(C)cc32)cc1` the figure was inactive: 65%; with `N#Cc1c(NC(=O)c2cnn3c(C(F)(F)F)cc(-c4ccco4)nc23)sc2c1CCCC2`, inactive: 100%; with `O=C(NCCc1ccccc1)c1ccc2c(c1)N(Cc1ccc(F)cc1)C(=O)CS2`, inactive: 88%. Take `O=C(NCCC1=CCCCC1)c1ccc2c(c1)sc1nc(-c3ccc(F)cc3)cn12`: the survival is inactive: 71%. With `CC(C)Cn1cc(NC(=O)NCc2cccc(Cl)c2)c2ccccc2c1=O` the figure was inactive: 92%; with `O=C(c1cc2sccc2n1Cc1ccc(F)cc1)N1CCc2ccccc2C1`, inactive: 129%.

Regarding `COc1ccc(NC(=O)c2cccc(N3CCCS3(=O)=O)c2)c(OC)c1`, the survival is inactive: 68%.

For `Cc1ccc2oc(C(=O)Nc3sc4c(c3C(=O)NCC3CCCO3)CCC4)cc(=O)c2c1` (stereo unspecified), the survival is inactive: 82%. With `COc1cc(OC)c(C2CC(=O)Nc3ccc4ccccc4c32)cc1OC` (stereo unspecified) the figure was inactive: 127%; with `COC(=O)c1ccccc1NC(=O)c1nc(-c2ccc(C)cc2)n2c1CCCCC2`, inactive: 86%; with `O=C(CN1C(=O)CSC1=O)NCc1ccccc1`, inactive: 106%. Next, `CC(NC(=O)c1cc2c(=O)n3ccccc3nc2n(C(C)C)c1=N)c1ccccc1` (stereo unspecified): inactive: 76%; `CC(NC(=O)Cn1c(=O)oc2cc(S(=O)(=O)N3CCCCCC3)ccc21)c1ccccc1` (stereo unspecified): inactive: 93%.

Take `Cc1ccc(CCNS(=O)(=O)c2ccc3c(c2)C(C(C)C)C(=O)N3)cc1` (stereo unspecified): the survival was inactive: 136%. With `COc1cc(NC(=O)CN2C(=O)CCc3cc(Br)ccc32)cc(OC)c1OC` the figure was inactive: 75%. Next, `Cc1cccc(OC(=O)CSc2nnc(-c3ccc4c(c3)OCO4)o2)c1C`: inactive: 80%; `Cc1ccc(C2=NN(CC(=O)NCCc3ccccc3)C(=O)CC2)cc1`: inactive: 69%; `COc1cccc(Cn2c(=O)n(CC3CCC(C(=O)NC(C)C)CC3)c(=O)c3sccc32)c1` (stereo unspecified): inactive: 75%.

For the molecule `Cc1cn(C)c(CC(=O)NCc2ccc(Cl)cc2)c1C(=O)O`, the survival is inactive: 66%. Next, `CC(=O)N1c2ccccc2C(=O)C1N1CCN(c2cccc(Cl)c2)CC1` (stereo unspecified): inactive: 73%; `Cc1cccc(-c2noc(-c3cc(C(C)C)[nH]n3)n2)c1`: inactive: 99%; `Nc1ccccc1-c1nc2ccccc2s1`: inactive: 112%.

As for `COc1ccccc1NC(=O)CC(C)n1nc(C)cc1C` (stereo unspecified), the survival is inactive: 76%.

Turning to `CCOc1ccc(C2c3c(-c4cc(C)ccc4O)n[nH]c3C(=O)N2Cc2cccnc2)cc1OCC` (stereo unspecified), the survival is inactive: 100%.

Consider `Cc1ccc2c(=O)c(C(=O)c3cccc(Cl)c3)cn(CC(=O)NC3CCCCC3)c2n1`, for which the survival was inactive: 126%. Regarding `CCOC(=O)c1ccc(NC(=O)CSc2nc3c(c(=O)[nH]2)CN(Cc2ccccc2)CC3)cc1`, the survival was inactive: 75%. Next, `COc1ccc(OC)c(CCNC(=O)CCCn2c(=O)c3cccn3c3ccc(F)cc32)c1`: inactive: 101%; `Cc1cc(F)ccc1NC(=O)CCS(=O)(=O)c1cc2c(cc1C)NC(=O)CO2`: inactive: 95%.

On to `COc1ccccc1Nc1ncc2c(n1)CCN(Cc1ccc(C)s1)C2`, for which the survival is inactive: 59%. For the molecule `COc1ccc(-n2nc3c(N4CCC(C(=O)NCc5ccccc5C)CC4)nnc(C)c3c2C)cc1`, the survival was inactive: 138%. With `CCOC(=O)N1CCC(NC(=O)c2c(C)nn(-c3cccc(C)c3)c2-n2cccc2)CC1` the figure was inactive: 85%; with `Cc1ccc(N(CC(=O)N2CCN(c3ccc(F)cc3)CC2)S(=O)(=O)c2c(C)noc2C)cc1`, inactive: 75%; with `CC(C)(C)C(=O)NCCc1nc2ccccc2n1CCCCOc1ccccc1`, inactive: 79%. With `O=S(=O)(NCc1ccc(F)cc1)c1ccc(N2CCCCS2(=O)=O)cc1` the figure was inactive: 95%. With `COc1cccc(CNC(=O)Cn2ncc3c(=O)oc4ccccc4c32)c1` the figure was inactive: 128%; with `Cc1ccc(CSc2cn(CC(=O)N3CCCCCC3)c3ccccc23)cc1`, inactive: 88%.

With `CCOc1ccccc1CNCCCSc1nnnn1C`, the survival is inactive: 84%. Next, `O=C(CC1CCCCC1)NCC1CCCO1` (stereo unspecified): inactive: 108%. With `CCCN(Cc1cc2cccc(C)c2[nH]c1=O)C(=O)c1cccc(Cl)c1` the figure was inactive: 94%; with `CCN1CCN(Cc2c(C)[nH]c3c(C)cc(C)cc3c2=O)CC1`, inactive: 105%; with `Cc1ccc(Cl)cc1NC(=O)Cn1c(=O)cc(C)c2c(C)nn(C)c21`, inactive: 132%.

With `Cc1cc(C)c(S(=O)(=O)Nc2ccc3oc(C)c(C(=O)OC(C)C)c3c2)cc1C`, the survival was inactive: 49%. Next, `Cc1oc(-c2cccc(Cl)c2)nc1CN1CCC(C(=O)NC(C)C)CC1`: inactive: 92%; `Cc1ccc(CNC(=O)CCNS(=O)(=O)c2ccc3c(c2)oc(=O)n3C)cc1`: inactive: 129%; `Cc1ccc(-n2nc3cc(C)c(NC(=O)c4ccc(-c5ccccc5)o4)cc3n2)cc1`: inactive: 71%.

Turning to `COc1cccc(C2CC(=O)Nc3c2c(=O)n(C)c2nc4ccccc4n32)c1OC` (stereo unspecified), the survival is inactive: 67%.

Consider `O=C(CCn1c(=O)c2sccc2n(Cc2ccc(F)cc2)c1=O)NCc1ccc2c(c1)OCO2`, for which the survival was inactive: 89%.

Turning to `COc1cccc(Nc2nnc(-c3cc4ccc(O)cc4oc3=O)s2)c1`, the survival was inactive: 80%. Next, `CCOc1ccc(NC(=O)Cn2c(=O)n(CCc3ccccc3)c(=O)c3c4c(sc32)CCCC4)cc1`: inactive: 90%; `Cc1ccc(NC(=O)CC2Oc3ccc(C)cc3NC2=O)c(C)c1` (stereo unspecified): inactive: 79%.

On to `Cc1ccc(CSc2c(C)cnc3c2c(=O)n(C)c(=O)n3C)cc1`, for which the survival is inactive: 77%.

As for `CC(=O)c1ccc(NC(=O)Cn2nc(C(F)(F)F)c3c2CCC3)cc1`, the survival is inactive: 66%.

On to `COc1cccc2sc(NC(=O)c3ccc4c(c3)OCCO4)nc12`, for which the survival was inactive: 79%. `Cc1ccc(Cl)cc1N1CCN(C(=O)Cn2cnc3onc(-c4ccc(F)cc4)c3c2=O)CC1`: the survival is inactive: 70%. With `CCc1nc2ccc(C(=O)N3CCN(c4ccccc4F)CC3)cc2nc1CC` the figure was inactive: 68%; with `O=C(Cn1ncc2c3ccccc3n(Cc3ccccc3)c2c1=O)NCc1cccs1`, inactive: 98%; with `CCN(CC)CCNC(=O)CCn1c(=O)c2cccn2c2cccnc21`, inactive: 90%. With `Cc1ccc2nc(-c3ccc(NC(=O)Cc4ccccc4)cc3)sc2c1` the figure was inactive: 90%; with `Nc1nc(CC(=O)NN=C2CCCCCC2)cs1`, inactive: 101%. Next, `CCCCNC(=O)CCC1N=C2c3ccccc3N=C(SCC(=O)NCCc3ccc(OC)c(OC)c3)N2C1=O` (stereo unspecified): inactive: 75%.
